The whole screen tested about 48,000 compounds, of which about 120 (0.25%) were called active. Roughly 4% stayed inconclusive and do not appear here. Calls follow the shape of the dose curve; as a rule, active = well fitted activation curve with a large enough effect; inconclusive = small, poorly fitted or top-dose-only effect, or another doubt; inactive = no such curve, though single readings can be large or run the other way. This is a selection; strong and weak results do not stand in their true shares. The source gives no active or inactive call for entries shown without one.

The nature of the test: Primary qHTS for Identification of Small Molecule Activators of Huntingtin-Antisense Promoter Activity. Also: nearly all actives have a fitted effect of over 55% in size. As to conditions: HEK293 HTT-AS promoter firefly luciferase reporter, 24 h; activity change, positive = activation: at 57.5 µM (top of the series), percent change from vehicle, -100% = no light. An outline of the steps: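 HEK293 cells carrying firefly luciferase reporters were seeded at 2,500 per well in Opti-MEM and cultured for 24 h. They were then treated with compounds at up to 57.5 uM final for 24 h at 37 degrees C before Dual-Glo luminescence readout.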
Turning to `Cc1cc(NC(=O)CCNS(=O)(=O)c2ccc3c(c2)CCCC(=O)N3)ccc1Br`, the “activity change, positive = activation” value is inactive: -16.5%.

Regarding `Cc1ccc(CNC(=O)C2CCCCN2S(=O)(=O)c2ccc(F)cc2)cc1` (configuration not stated), the activity change, positive = activation was -35%.

In the case of `Cc1ccc(NC(=O)CSc2nc(-c3ccc(C(C)(C)C)cc3)nc3cc(=O)[nH]n23)cc1C`, the activity change, positive = activation was -16.1%.

Consider `C[C@@H](CN(C)C)CN1c2ccccc2Sc2ccccc21`, for which the “activity change, positive = activation” value was inactive: -21.4%.

Consider `O=C(NCc1ccccc1Cl)c1cnc2sc(N3CCOCC3)nn2c1=O`, for which the activity change, positive = activation was -4.08%.

With `COc1ccc(-c2cc(C(=O)Nc3ccn(Cc4ccc(C)cc4)n3)no2)cc1OC`, the activity change, positive = activation was -2.67%.

With `CCS(=O)(=O)N1CCC(n2c(C)nc3cccnc32)CC1`, the activity change, positive = activation is 0.484%.

Regarding `COc1cc2oc(=O)c(CC(=O)N3CCCCC3)c(C)c2cc1OC`, the activity change, positive = activation was -11%.

For the molecule `O=C(NCCSCc1c(F)cccc1Cl)C1CCN(S(=O)(=O)Cc2ccccc2)CC1`, the activity change, positive = activation is -10.2%.

For the molecule `COc1ccc(OC)c(NC(=O)CSc2nc(-c3ccccc3C)nc3cc(=O)[nH]n23)c1`, the activity change, positive = activation was -1.16%.

On to `CS(=O)(=O)N1CCC(n2c(C(F)(F)F)nc3cccnc32)CC1`, for which the activity change, positive = activation worked out at 3.91%.

For the molecule `CC1(C)CCC(CN2CCN(c3ccc(C(=O)NS(=O)(=O)c4ccc(NCC5CCOCC5)c([N+](=O)[O-])c4)c(Oc4cnc5[nH]ccc5c4)c3)CC2)=C(c2ccc(Cl)cc2)C1`, the “activity change, positive = activation” value is inactive: -5.94%.

Regarding `Cc1ccc(NC(=O)c2c(C(=O)Nc3ccccc3)sc3nc(C)cc(=O)n23)c(C)c1`, the activity change, positive = activation is -27.1%.

Consider `O=S(=O)(c1ccc(F)cc1)N1CCC(n2c(C(F)(F)F)nc3cccnc32)CC1`, for which the activity change, positive = activation was -25.4%.

As to `Cc1ccc(C(=O)N2CCC(N3CCN(Cc4ccc(F)cc4)C(=O)C3=O)CC2)cc1`, the activity change, positive = activation is -3.42%.

As to `CCN1CCN(Cc2c(O)ccc3oc(C)c(C(=O)Nc4ccc(C)cc4C)c23)CC1`, the activity change, positive = activation is -3.33%.

For the molecule `CCCOc1ccc(NC(=O)CC2C(=O)N(c3ccc(Cl)cc3)C(=O)N2CCc2ccncc2)cc1` (configuration not stated), the activity change, positive = activation was 18.1%.

Turning to `CCC1CCCCN1CCCNC(=O)c1ccc2c(c1)N(Cc1ccc(Cl)cc1)C(=O)c1ccccc1S2(=O)=O` (configuration not stated), the “activity change, positive = activation” value is inactive: -14.2%.

Consider `CCCOc1ccc(C2C(=O)N(C3CCC(C)CC3)CC(=O)N2CCC2=CCCCC2)cc1OC` (configuration not stated), for which the activity change, positive = activation was -7.74%.

With `COc1ccc(OC)c(-c2cc(C(=O)NC(C)c3ccccc3)no2)c1` (configuration not stated), the activity change, positive = activation is -16.6%.

Regarding `COc1ccc(NC(=O)Nc2sc3nc4n(c(=O)c3c2C)CCC(C)CC4)cc1OC` (configuration not stated), the activity change, positive = activation was -27.8%.

For `COc1ccc(C2=CC(c3ccccc3F)n3ncc(C(=O)Nc4ccc(C)cc4)c3N2)cc1` (configuration not stated), the “activity change, positive = activation” value is inactive: 15.2%.

In the case of `CCCc1cc(C(=O)Nc2c(C)nn(Cc3ccc(C)cc3)c2C)no1`, the activity change, positive = activation was -30.8%.

On to `CCN(CC)S(=O)(=O)c1cc(-c2nnc(Nc3ccc(OC)c(C(N)=O)c3)c3ccccc23)ccc1C`, for which the activity change, positive = activation was -40.3%.

For the molecule `Cc1ccc(C)c(NC(=O)c2ccc3c(c2)CCN3S(C)(=O)=O)c1`, the “activity change, positive = activation” value is inactive: -3.28%.

On to `CCOC(=O)c1ccc(N2CCN(c3cccc(Cl)c3)CC2)c(NC(=O)Nc2ccc(OC)cc2OC)c1`, for which the activity change, positive = activation is -4.33%.

Consider `O=C(CSc1nc2ccccc2nc1Cc1ccc(F)cc1)Nc1ccc2c(c1)OCO2`, for which the activity change, positive = activation was -1.25%.

Take `Cc1cc(=O)n2c(C(=O)Nc3ccc(C)c(Cl)c3)c(C(=O)Nc3ccccc3)sc2n1`: the activity change, positive = activation is -8.45%.

As to `Cn1c(=O)n(C)c2cc(N3CCCCC3)c(NC(=O)c3ccc(Cl)cc3)cc21`, the activity change, positive = activation was -2.14%.

Turning to `COC(=O)c1cc2oc3ccccc3c2n1Cc1nc(-c2cccc(Cl)c2)oc1C`, the activity change, positive = activation is 4.32%.

For the molecule `Cc1nn(CC(=O)NC2CCCCC2)c(=O)c2cc3cc(F)ccc3n12`, the activity change, positive = activation is -10%.

Regarding `Cc1cc(C)c(Cn2c(CCNC(=O)c3ccco3)nc3ccccc32)c(C)c1`, the activity change, positive = activation is -27%.

For `Oc1ccccc1-c1nc(/C=C/c2ccccc2)nn1-c1ccccc1`, the activity change, positive = activation stood at 22.2%.

For `CC1CCN(c2nn3c(=O)c(C(=O)NCCc4ccc(Cl)cc4)cnc3s2)CC1`, the activity change, positive = activation is -4.25%.

Consider `Cc1ccc(-n2ccnc(NCCc3ccccc3)c2=O)cc1C`, for which the “activity change, positive = activation” value is inactive: 7.04%.

Take `COc1ccc(OC)c(-c2cc(C(=O)NCc3ccc(Cl)cc3)no2)c1`: the activity change, positive = activation is -13%.

In the case of `Cn1c(=O)c2c(-c3ccccc3)n3c(c2n(C)c1=O)C(c1cccc([N+](=O)[O-])c1)Nc1ccccc1-3` (configuration not stated), the activity change, positive = activation is -8.55%.

For the molecule `CCN(C(=O)Cn1cnc2c1c(=O)n(C)c(=O)n2C)c1ccccc1C`, the activity change, positive = activation is 0.0853%.

On to `CCc1ccc(S(=O)(=O)Nc2ccc3oc(C)c(C(=O)OCCOC)c3c2)cc1`, for which the activity change, positive = activation was -23.2%.

As for `COc1ccc(CNC(=O)C2CCN(S(=O)(=O)Cc3ccccc3)CC2)cc1`, the activity change, positive = activation is -0.724%.

On to `CC(=O)c1ccc(S(=O)(=O)Nc2cccc(-c3ccc(N4CCCC4)nn3)c2)cc1`, for which the activity change, positive = activation stood at 0.255%.

As for `Cc1nn(-c2ccc(N3CCCCC3)nn2)c(C)c1CCC(=O)Nc1cccc(F)c1`, the activity change, positive = activation is 17.6%.

In the case of `CN1CCN(c2cc(C(=O)Nc3ccc4c(c3)-c3c(c(C(N)=O)nn3-c3ccc(F)cc3)CC4)c(Cl)cn2)CC1`, the “activity change, positive = activation” value is inactive: -6.76%.

As for `Cc1cc(C)c(S(=O)(=O)Nc2ccc(-c3ccc(N4CCCCC4)nn3)cc2)cc1C`, the activity change, positive = activation amounted to 8.83%.

On to `O=C(Nc1ccc(F)cc1)c1ccc2c(c1)NC(=O)c1ccccc1S2`, for which the activity change, positive = activation is -46.8%.

Take `Nc1nonc1-c1nc2ccccc2n1CC(=O)Nc1cccc(Cl)c1Cl`: the activity change, positive = activation was -26.8%.

Take `CN(C)CC(C)(C)CNc1nn2c(-c3ccccc3)nnc2cc1C1CCC1`: the “activity change, positive = activation” value was inactive: -27.2%.
